PubChem BioAssay AID1745853 (National Center for Advancing Translational Sciences (NCATS), 2022)
This is one part of the list. The main result of the screen is listed elsewhere. These columns were measured beside it and carry no call.

What was measured:
Experiment in all cases: Primary Screen for Target Class Profiling of Small Molecule Inhibitors of Methyltransferases
[1] = biological target: Glycine N-methyltransferase (Homo sapiens) (UniProt Q14749); conditions: purified enzyme, MTase-Glo SAH luminescence; measured here: GNMT inhibition; at 40 µM; stronger effect = lower value
Method in brief: (§1)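 Each enzyme was assayed with SAM and its substrate. SAH formation detected by MTase-Glo luminescence; single-point 40 uM screen[…].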

[2] = biological target: Guanidinoacetate N-methyltransferase (Homo sapiens) (UniProt Q14353); conditions: purified enzyme, MTase-Glo SAH luminescence; measured here: GAMT inhibition; at 40 µM; stronger effect = lower value
Method in brief: as §1

[3] = biological target: Histamine N-methyltransferase (Homo sapiens) (UniProt P50135); conditions: purified enzyme, MTase-Glo SAH luminescence; measured here: HNMT inhibition; at 40 µM; stronger effect = lower value
Method in brief: as §1

[4] = biological target: Nicotinamide N-methyltransferase (Homo sapiens) (UniProt P40261); conditions: purified enzyme, MTase-Glo SAH luminescence; measured here: NNMT inhibition; at 40 µM; stronger effect = lower value
Method in brief: as §1

[5] = biological target: Phenylethanolamine N-methyltransferase (Homo sapiens) (UniProt P11086); conditions: purified enzyme, MTase-Glo SAH luminescence; measured here: PNMT inhibition; at 40 µM; stronger effect = lower value
Method in brief: as §1
% is scaled to controls: 0 for no effect and ±100 for the full control effect.

Compound	activity change, negative = inhibition [1] [%]	activity change, negative = inhibition [2] [%]	activity change, negative = inhibition [3] [%]	activity change, negative = inhibition [4] [%]	activity change, negative = inhibition [5] [%]
CCOc1ccc(CCNC(=O)Cn2ccc3cc(S(=O)(=O)N4CCCC4)ccc32)cc1	4.56	4.39	8.83	4.06	3.44
Cc1[nH]c2ccccc2c1CCNC(=O)c1cccs1	-5.29	-24.4	4.5	-35.3	-7.87
CC(=O)Nc1c2n(c3ccc(F)cc13)CC(C)(C(=O)NC1CCCC1)N(C1CCCCCC1)C2=O (stereo not given)	-1.45	0.449	-0.844	-6.17	-8.77
COc1ccc(OC)c(NC(=O)N2CCn3cccc3C2C)c1 (stereo not given)	-14.3	-2.15	-14.8	-23.4	-16.1
COc1ccc(-c2nnc3n(Cc4ccc(C)cc4)c(=O)c4ccccc4n23)cc1OC	-1.12	4.7	3.24	7.67	0.215
O=c1[nH]ccc2cc(OC3CCNCC3)ccc12	2.88	1.64	-14.7	-10.6	-2.58
NC1CCCCN(C(=O)c2ccc(Cn3cccn3)o2)C1 (stereo not given)	-3.82	-10.6	-5.7	-1.3	-11
COc1ccccc1C(=O)NC[C@@H]1C=C(C)[C@H](CC(=O)NCc2ccccn2)C[C@H]1C(C)C	-4.33	1.59	-2.49	-4.88	1.1
CC1(C(=O)NC2CCCCCC2)Cn2c(cc3occc32)C(=O)N1c1cccc(Cl)c1 (stereo not given)	-4.74	1.65	-7.31	-3.89	-2.24
CC(=O)Nc1ccc(-c2nnc3n(Cc4ccc(F)cc4)c(=O)c4ccccc4n23)cc1	-9.15	5.32	3.22	4.7	1.11
CCOc1cc(CNC(=O)c2cc3n(n2)CC(C)(C(=O)NCc2ccccc2)N(C)C3=O)ccc1OC (stereo not given)	0.043	3.76	-0.971	-2.19	-0.123
CCC(C)/C=C(C)/C=C/C1=CC2=C(Cl)C(=O)C(C)(OC(C)=O)C(=O)C2=CN1CCCC(=O)O (stereo not given)	0	4.33	3.08	-10.1	0.165
CCC(C)NC(=O)c1ccc2c(=O)n(C(C)C)c3nn(CC(=O)NC4CCCCC4)c(=O)n3c2c1 (stereo not given)	2.85	0	0.697	0.11	3.83
O=C1CCC2(CCCO2)CCN1Cc1ccc(C(F)(F)F)c(F)c1 (stereo not given)	-1.04	2.22	3.58	-3.09	-16.6
NS(=O)(=O)c1ccc(N2N=C(c3ccccc3)CC2c2ccccc2)cc1 (stereo not given)	1.97	-5.06	8.26	-35.9	-0.725
CN1CCN(c2nc3c(c(=O)[nH]2)CCN(Cc2cccnc2)CC3)CC1	-6.95	-12.5	-5.77	-1.57	-9.34
CC1=C[C@@H](CNC(=O)COc2ccccc2)[C@H](C(C)C)C[C@H]1CC(=O)NCCN(C)C	-1.09	1.76	-5.08	-2.86	-0.946
CC(C)CCN1C(=O)c2cc3ccccc3n2CC1(C)C(=O)NC1CCCCC1 (stereo not given)	0.947	2.31	4.57	6.14	-0.463
COC(=O)C1(O)C(OC(C)=O)CCC2C3(CC(c4ccoc4)OC3=O)C(C)=CCC21C(=O)OC (stereo not given)	0.669	4.37	10.2	-7.52	4.83
